From a collection of fitness landscapes (doi:10.1126/science.1257360)
This is one part of the list.

B1: PhoQ; a variant is named by its letters at X, in order, P23837 (parent)
chain: MKKLLRLFFPLSLRVRFLLATAAVVLVLSLAYGMVALIGYSVSFDKTTFRLLRGESNLFYTLAKWENNKLHVELPENIDKQSPTMTLIYDENGQLLWAQRDVPWLMKMIQPDWLKSNGFHEIEADVNDTSLLLSGDHSIQQQLQEVREDDDDAEMTHSVAVNVYPATSRMPKLTIVVVDTIPVELKSSYMVWSWFIYVLSANLLLVIPLLWVAAWWSLRPIEALAKEVRELEEHNRELLNPATTRELTSLVRNLNRLLKSERERYDKYRTTLTDLTHSLKTPLXXLQXXLRSLRSEKMSVSDAEPVMLEQISRISQQIGYYLHRASMRGGTLLSRELHPVAPLLDNLTSALNKVYQRKGVNISLDISPEISFVGEQNDFVEVMGNVLDNACKYCLEFVEISARQTDEHLYIVVEDDGPGIPLSKREVIFDRGQRVDTLRPGQGVGLAVAREITEQYEGKIVAGESMLGGARMEVIFGRQHSAPKDE

Variants of: B1
Experiment: enrichment ratio after two sorts for PhoP signalling (ratio (wild type AVST 3.29)); higher = more functional
Conditions: with PhoP (E. coli)

Row | Variant | enrichment ratio
1 | YECC | 56.2
2 | IPDD | ≤ 0.25
3 | LPEC | ≤ 0.25
4 | INWY | ≤ 0.25
5 | PLNH | ≤ 0.25
6 | HRNR | ≤ 0.25
7 | NKVH | ≤ 0.25
8 | KQPP | ≤ 0.25
9 | IIAF | ≤ 0.25
10 | SYIF | ≤ 0.25
11 | HPWH | ≤ 0.25
12 | GDGV | ≤ 0.25
13 | PEHR | ≤ 0.25
14 | FNRP | ≤ 0.25
15 | LPNQ | ≤ 0.25
16 | ACNP | ≤ 0.25
17 | KMLY | 0.301
18 | VFHP | ≤ 0.25
19 | VIVP | ≤ 0.25
20 | QTQL | ≤ 0.25
21 | PWFA | ≤ 0.25
22 | SHSY | 4.52
23 | LHHR | ≤ 0.25
24 | VPVT | ≤ 0.25

Row | Variant | enrichment ratio
25 | EMTC | ≤ 0.25
26 | GINQ | ≤ 0.25
27 | PSDH | ≤ 0.25
28 | SLII | ≤ 0.25
29 | EPYM | ≤ 0.25
30 | NKNI | ≤ 0.25
31 | GEVA | ≤ 0.25
32 | KLAT | ≤ 0.25
33 | WHWD | ≤ 0.25
34 | NMYN | ≤ 0.25
35 | DALC | ≤ 0.25
36 | VCRH | ≤ 0.25
37 | LLYA | ≤ 0.25
38 | HRLS | ≤ 0.25
39 | FKRD | ≤ 0.25
40 | FWRA | ≤ 0.25
41 | KETT | ≤ 0.25
42 | NYFH | ≤ 0.25
43 | ILGR | ≤ 0.25
44 | RNSV | ≤ 0.25
45 | AVQF | 2.87
46 | QVNS | 2.28
47 | SCDY | ≤ 0.25
48 | DTCA | ≤ 0.25

Row | Variant | enrichment ratio
49 | VIRE | ≤ 0.25
50 | MDDR | ≤ 0.25
51 | IYDL | ≤ 0.25
52 | TGEL | ≤ 0.25
53 | SFIG | 4.64
54 | RGHT | ≤ 0.25
55 | IGHH | 2.36
56 | RTLR | ≤ 0.25
57 | KEMA | ≤ 0.25
58 | WLNL | ≤ 0.25
59 | HGTL | 6.22
60 | PRAM | ≤ 0.25
61 | SICF | 9.88
62 | MSSV | 9.84
63 | THAI | 14.8
64 | FAAN | ≤ 0.25
65 | VGEF | ≤ 0.25
66 | RLCG | ≤ 0.25
67 | MAPP | ≤ 0.25
68 | IKHF | ≤ 0.25
69 | WAWD | ≤ 0.25
70 | YPRQ | ≤ 0.25
71 | NDGA | ≤ 0.25
72 | RNKR | ≤ 0.25

Row | Variant | enrichment ratio
73 | GEIV | 8.51
74 | AWHR | 1.51
75 | KTDF | ≤ 0.25
76 | RDCV | ≤ 0.25
77 | LLDY | ≤ 0.25
78 | WIYC | ≤ 0.25
79 | QSHM | 9.47
80 | GYFP | ≤ 0.25
81 | NSYD | ≤ 0.25
82 | AVCT | 6.04
83 | NITI | ≤ 0.25
84 | WVKH | ≤ 0.25
85 | VSMM | 2.19
86 | FIAV | ≤ 0.25
87 | VSQP | ≤ 0.25
88 | SYAC | ≤ 0.25
89 | HNPM | ≤ 0.25
90 | QPRY | ≤ 0.25
91 | VVVL | ≤ 0.25
92 | KDLH | ≤ 0.25
93 | VKTI | ≤ 0.25
94 | DPSY | ≤ 0.25
95 | PTYH | ≤ 0.25
96 | WQTA | ≤ 0.25

Row | Variant | enrichment ratio
97 | VEYL | ≤ 0.25
98 | TVWG | ≤ 0.25
99 | VNRH | ≤ 0.25
100 | GVSI | 2.12
101 | MYYP | ≤ 0.25
102 | IEIA | ≤ 0.25
103 | LCMD | ≤ 0.25
104 | GHPR | ≤ 0.25
105 | MHHA | ≤ 0.25
106 | TLWH | ≤ 0.25
107 | FPVV | ≤ 0.25
108 | QFYL | ≤ 0.25
109 | MNAL | 6.96
110 | QTEY | ≤ 0.25
111 | WAVS | ≤ 0.25
112 | DALM | ≤ 0.25
113 | QCPR | ≤ 0.25
114 | KGWG | ≤ 0.25
115 | HIFL | ≤ 0.25
116 | HCDR | ≤ 0.25
117 | ADML | 21.8
118 | LMLI | ≤ 0.25
119 | VRYF | ≤ 0.25
120 | EQIV | ≤ 0.25

Row | Variant | enrichment ratio
121 | TTHP | ≤ 0.25
122 | DGPM | ≤ 0.25
123 | HPHH | ≤ 0.25
124 | ACMI | 21
125 | MFMW | ≤ 0.25
126 | YQFP | ≤ 0.25
127 | DQFS | ≤ 0.25
128 | HQHA | ≤ 0.25
129 | NVLW | ≤ 0.25
130 | AYDY | ≤ 0.25
131 | FGCH | ≤ 0.25
132 | WAKK | ≤ 0.25
133 | IQTE | ≤ 0.25
134 | FKLV | 6.1
135 | EVKS | ≤ 0.25
136 | TMVP | ≤ 0.25
137 | HFKQ | ≤ 0.25
138 | ASQR | ≤ 0.25
139 | MKGV | ≤ 0.25
140 | LDHT | ≤ 0.25
141 | REMY | ≤ 0.25
142 | GNKL | ≤ 0.25
143 | IWGR | ≤ 0.25
144 | HCTK | ≤ 0.25

Row | Variant | enrichment ratio
145 | PDYF | ≤ 0.25
146 | VIMR | ≤ 0.25
147 | WIYH | ≤ 0.25
148 | NWWY | ≤ 0.25
149 | TGSF | 5.31
150 | MVQR | ≤ 0.25
151 | YKIS | ≤ 0.25
152 | QLCL | ≤ 0.25
153 | HGPI | ≤ 0.25
154 | HMKC | ≤ 0.25
155 | KTVH | ≤ 0.25
156 | SKHN | 2.27
157 | RILW | ≤ 0.25
158 | PSKG | ≤ 0.25
159 | SGFM | 5.94
160 | HEEP | 0.824
161 | SPWH | ≤ 0.25
162 | VENS | ≤ 0.25
163 | KAYG | ≤ 0.25
164 | RKHY | ≤ 0.25
165 | YVPN | ≤ 0.25
166 | NWGY | ≤ 0.25
167 | VQGW | ≤ 0.25
168 | PIDM | ≤ 0.25

Row | Variant | enrichment ratio
169 | YLSD | ≤ 0.25
170 | TMEC | 11.9
171 | LEVE | ≤ 0.25
172 | DYLS | ≤ 0.25
173 | VRHI | ≤ 0.25
174 | KAYA | ≤ 0.25
175 | MDSC | ≤ 0.25
176 | VDTI | ≤ 0.25
177 | SHTN | ≤ 0.25
178 | PSPG | ≤ 0.25
179 | MQVC | ≤ 0.25
180 | VAMF | ≤ 0.25
181 | FFSK | ≤ 0.25
182 | PDHK | ≤ 0.25
183 | RLFP | ≤ 0.25
184 | QFIL | ≤ 0.25
185 | KVQK | ≤ 0.25
186 | MWQS | ≤ 0.25
187 | LKRQ | ≤ 0.25
188 | PMCW | ≤ 0.25
189 | WKMC | ≤ 0.25
190 | FGKF | ≤ 0.25
191 | ESHN | ≤ 0.25
192 | IISD | ≤ 0.25

Row | Variant | enrichment ratio
193 | KSGL | ≤ 0.25
194 | FRWE | ≤ 0.25
195 | DVDG | ≤ 0.25
196 | FDCD | ≤ 0.25
197 | FQHH | ≤ 0.25
198 | MNWG | 15.6
199 | FHAP | ≤ 0.25
200 | TDTV | 2.99
201 | IVKQ | ≤ 0.25
202 | YQKI | ≤ 0.25
203 | GYSE | ≤ 0.25
204 | ICHC | ≤ 0.25
205 | YKHL | ≤ 0.25
206 | EDYY | ≤ 0.25
207 | QVFT | ≤ 0.25
208 | NRQT | ≤ 0.25
209 | PVRC | ≤ 0.25
210 | YAHG | ≤ 0.25
211 | RCWY | ≤ 0.25
212 | VLCS | ≤ 0.25
213 | QRYG | ≤ 0.25
214 | WQWS | ≤ 0.25
215 | YCGQ | ≤ 0.25
216 | IRHN | ≤ 0.25

Row | Variant | enrichment ratio
217 | ENNR | ≤ 0.25
218 | KHLT | ≤ 0.25
219 | AQES | ≤ 0.25
220 | HTFQ | ≤ 0.25
221 | TWYV | ≤ 0.25
222 | WRGF | ≤ 0.25
223 | TMDQ | ≤ 0.25
224 | QKCP | ≤ 0.25
225 | PMQV | ≤ 0.25
226 | MAMS | ≤ 0.25
227 | PWKM | ≤ 0.25
228 | HPLN | ≤ 0.25
229 | NCKI | ≤ 0.25
230 | PWTY | ≤ 0.25
231 | TWQI | ≤ 0.25
232 | ICHF | ≤ 0.25
233 | LNDF | ≤ 0.25
234 | NQTI | ≤ 0.25
235 | PYNR | ≤ 0.25
236 | QGLQ | ≤ 0.25
237 | HKWW | ≤ 0.25
238 | VFEV | ≤ 0.25
239 | QGGY | 14.3
240 | AWHT | ≤ 0.25

Row | Variant | enrichment ratio
241 | QMPS | ≤ 0.25
242 | YSGP | ≤ 0.25
243 | LTLG | ≤ 0.25
244 | KFCH | ≤ 0.25
245 | SMAI | 13.5
246 | AKMI | 12.8
247 | QTTE | ≤ 0.25
248 | YFKE | ≤ 0.25
249 | YNMV | 0.274
250 | ATVE | ≤ 0.25
251 | AMQM | ≤ 0.25
252 | KYVY | ≤ 0.25
253 | ETNV | ≤ 0.25
254 | TQSW | ≤ 0.25
255 | RYIM | ≤ 0.25
256 | KALG | ≤ 0.25
257 | DPLA | ≤ 0.25
258 | MSPW | ≤ 0.25
259 | IIII | ≤ 0.25
260 | KYGY | ≤ 0.25
261 | SRIV | ≤ 0.25
262 | IAVH | ≤ 0.25
263 | LWHY | ≤ 0.25
264 | AKEC | ≤ 0.25

Row | Variant | enrichment ratio
265 | APSG | ≤ 0.25
266 | DMDA | ≤ 0.25
267 | RRWH | ≤ 0.25
268 | KYKA | ≤ 0.25
269 | KNRD | ≤ 0.25
270 | TNCK | ≤ 0.25
271 | YHAL | ≤ 0.25
272 | DGPS | ≤ 0.25
273 | IGNR | ≤ 0.25
274 | VWVM | ≤ 0.25
275 | VMRY | ≤ 0.25
276 | WNCA | ≤ 0.25
277 | RPGQ | ≤ 0.25
278 | TNFE | ≤ 0.25
279 | ECFR | ≤ 0.25
280 | GSNY | ≤ 0.25
281 | QFNA | ≤ 0.25
282 | QATQ | ≤ 0.25
283 | WFKG | ≤ 0.25
284 | GSWM | ≤ 0.25
285 | EHQA | ≤ 0.25
286 | SPST | ≤ 0.25
287 | STLS | 11.1
288 | PNPE | ≤ 0.25

Row | Variant | enrichment ratio
289 | WWLR | ≤ 0.25
290 | RDHW | ≤ 0.25
291 | DMSR | ≤ 0.25
292 | FVNF | ≤ 0.25
293 | FPPG | ≤ 0.25
294 | ATTV | 6.52
295 | MKAL | 4.45
296 | YYDD | ≤ 0.25
297 | LYLC | ≤ 0.25
298 | TNLV | 5.2
299 | AFSP | ≤ 0.25
300 | HCLL | 3.34
301 | IIHI | ≤ 0.25
302 | GKEA | ≤ 0.25
303 | NHHN | ≤ 0.25
304 | STFC | ≤ 0.25
305 | RTCA | ≤ 0.25
306 | RQGP | ≤ 0.25
